No constants are given. Whether binding was seen depends on the method and setting. For some of these results: Binding seen in cells or lysates may run through a third protein. Some results given as binding are weak or reduced against the parent protein; the word gives no strength. For some of these results: Where a sequence is shown, tags or fusion partners need not be part of it.
Assays:
SFB-α-catenin [1] = biological target: SFB-α-catenin (UniProt P35221); experiment: co-IP; cytoplasmic fraction of cells expressing SFB-α-catenin; immunoprecipitation with Flag, blots with PPM1G and β-catenin antibodies
SFB-α-catenin [2] = biological target: SFB-α-catenin (UniProt P35221); experiment: pull-down; SFB-tagged bait expressed in cells (HEK293T/293T where named), lysate in NETN buffer, streptavidin Sepharose beads 1 h at 4°C, endogenous prey detected by Western blot; Fig 3B/3L control shRNA cells; Fig 4C control, PPM1G and B56δ shRNA cells
SFB-α-catenin [3] = biological target: SFB-α-catenin (UniProt P35221); experiment: co-IP; nuclear fraction of cells expressing SFB-α-catenin; immunoprecipitation with Flag, blots with PPM1G and β-catenin antibodies
[4] = biological target: T1, SFB-PPM1G full length (FL) (human) (UniProt O15355); experiment: pull-down; SFB-tagged bait and Myc-tagged prey co-transfected in cells, lysate pulled down with streptavidin beads, immunoblot with Myc antibody
T1 sequence: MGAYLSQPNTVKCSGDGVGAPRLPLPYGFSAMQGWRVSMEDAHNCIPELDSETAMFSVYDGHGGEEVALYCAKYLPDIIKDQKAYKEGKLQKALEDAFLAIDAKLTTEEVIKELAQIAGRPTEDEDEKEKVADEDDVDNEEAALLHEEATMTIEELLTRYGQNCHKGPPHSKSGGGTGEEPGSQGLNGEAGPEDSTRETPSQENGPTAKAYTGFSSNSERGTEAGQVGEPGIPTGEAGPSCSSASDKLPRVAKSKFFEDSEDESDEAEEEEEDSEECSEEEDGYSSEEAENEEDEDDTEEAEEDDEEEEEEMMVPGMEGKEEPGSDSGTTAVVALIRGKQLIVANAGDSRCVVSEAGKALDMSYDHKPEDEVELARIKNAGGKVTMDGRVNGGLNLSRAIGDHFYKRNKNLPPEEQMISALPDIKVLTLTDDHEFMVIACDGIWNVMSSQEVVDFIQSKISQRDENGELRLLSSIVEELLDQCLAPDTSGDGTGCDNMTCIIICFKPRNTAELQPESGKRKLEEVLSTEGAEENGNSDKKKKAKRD

Sequences of proteins named here, by UniProt entry; tags and fusion partners are left off. A change or cut given only in a name is not applied to a line headed by its entry.
UniProt P35221: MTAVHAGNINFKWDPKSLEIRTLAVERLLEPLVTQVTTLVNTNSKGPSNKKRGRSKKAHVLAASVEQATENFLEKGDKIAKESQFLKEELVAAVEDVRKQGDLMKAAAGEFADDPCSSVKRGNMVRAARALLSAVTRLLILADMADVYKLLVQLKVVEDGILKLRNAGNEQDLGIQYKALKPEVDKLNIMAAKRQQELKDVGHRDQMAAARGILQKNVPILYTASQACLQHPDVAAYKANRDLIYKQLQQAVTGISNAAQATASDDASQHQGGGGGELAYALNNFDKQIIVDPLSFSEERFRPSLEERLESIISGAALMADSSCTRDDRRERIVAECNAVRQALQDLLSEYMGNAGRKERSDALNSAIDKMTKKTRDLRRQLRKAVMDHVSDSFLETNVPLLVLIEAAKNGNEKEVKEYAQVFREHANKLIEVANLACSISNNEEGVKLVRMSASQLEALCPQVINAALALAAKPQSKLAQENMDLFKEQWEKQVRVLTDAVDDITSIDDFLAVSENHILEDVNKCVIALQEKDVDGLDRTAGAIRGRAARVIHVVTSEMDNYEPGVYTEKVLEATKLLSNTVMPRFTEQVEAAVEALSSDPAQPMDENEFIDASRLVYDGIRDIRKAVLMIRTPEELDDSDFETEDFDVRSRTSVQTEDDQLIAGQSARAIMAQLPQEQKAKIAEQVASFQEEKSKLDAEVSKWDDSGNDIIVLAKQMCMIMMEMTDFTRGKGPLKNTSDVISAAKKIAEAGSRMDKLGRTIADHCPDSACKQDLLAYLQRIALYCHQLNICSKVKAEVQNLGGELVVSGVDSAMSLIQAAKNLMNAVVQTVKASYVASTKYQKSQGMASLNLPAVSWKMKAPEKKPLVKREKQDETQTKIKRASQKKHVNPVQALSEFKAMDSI
UniProt Q14738: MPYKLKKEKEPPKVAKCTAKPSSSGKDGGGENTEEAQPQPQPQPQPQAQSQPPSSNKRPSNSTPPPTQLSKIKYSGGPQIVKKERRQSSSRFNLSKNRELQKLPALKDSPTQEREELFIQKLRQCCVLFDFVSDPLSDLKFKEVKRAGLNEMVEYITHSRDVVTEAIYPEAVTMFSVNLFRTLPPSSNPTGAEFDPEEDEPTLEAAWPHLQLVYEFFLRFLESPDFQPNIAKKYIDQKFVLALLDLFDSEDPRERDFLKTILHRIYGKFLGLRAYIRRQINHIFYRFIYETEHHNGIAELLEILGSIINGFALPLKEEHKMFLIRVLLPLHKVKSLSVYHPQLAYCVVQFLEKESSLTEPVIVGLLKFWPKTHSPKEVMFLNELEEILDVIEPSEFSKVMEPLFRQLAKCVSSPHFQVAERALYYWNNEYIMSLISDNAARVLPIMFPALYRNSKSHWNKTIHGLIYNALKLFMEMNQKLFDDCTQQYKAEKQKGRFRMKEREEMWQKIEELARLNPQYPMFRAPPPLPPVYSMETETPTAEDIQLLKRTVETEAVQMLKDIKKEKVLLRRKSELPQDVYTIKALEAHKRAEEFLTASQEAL
UniProt Q15172: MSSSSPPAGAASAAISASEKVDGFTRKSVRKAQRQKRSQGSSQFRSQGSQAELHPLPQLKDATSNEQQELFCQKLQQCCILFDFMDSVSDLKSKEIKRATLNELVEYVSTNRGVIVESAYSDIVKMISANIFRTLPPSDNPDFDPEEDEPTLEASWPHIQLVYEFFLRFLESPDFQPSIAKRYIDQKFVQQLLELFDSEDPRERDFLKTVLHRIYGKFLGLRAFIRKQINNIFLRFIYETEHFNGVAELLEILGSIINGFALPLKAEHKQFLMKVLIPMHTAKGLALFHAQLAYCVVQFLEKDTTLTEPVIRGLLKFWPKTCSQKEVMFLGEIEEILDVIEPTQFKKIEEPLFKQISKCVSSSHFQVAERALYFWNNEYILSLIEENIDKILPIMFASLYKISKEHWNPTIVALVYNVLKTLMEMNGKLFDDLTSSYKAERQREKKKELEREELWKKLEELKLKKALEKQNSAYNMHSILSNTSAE
UniProt Q16537: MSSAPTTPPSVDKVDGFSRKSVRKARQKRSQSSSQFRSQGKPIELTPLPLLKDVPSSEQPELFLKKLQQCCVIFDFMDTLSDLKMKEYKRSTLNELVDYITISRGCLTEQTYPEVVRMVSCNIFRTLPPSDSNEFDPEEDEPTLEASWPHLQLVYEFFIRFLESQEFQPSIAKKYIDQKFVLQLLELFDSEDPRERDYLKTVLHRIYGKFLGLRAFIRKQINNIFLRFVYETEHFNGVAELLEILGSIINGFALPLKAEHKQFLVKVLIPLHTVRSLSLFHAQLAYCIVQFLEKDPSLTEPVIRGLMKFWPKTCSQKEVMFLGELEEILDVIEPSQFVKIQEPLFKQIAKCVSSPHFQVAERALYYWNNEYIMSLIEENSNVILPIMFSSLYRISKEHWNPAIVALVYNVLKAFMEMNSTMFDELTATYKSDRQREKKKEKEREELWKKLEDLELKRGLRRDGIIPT
UniProt P30154: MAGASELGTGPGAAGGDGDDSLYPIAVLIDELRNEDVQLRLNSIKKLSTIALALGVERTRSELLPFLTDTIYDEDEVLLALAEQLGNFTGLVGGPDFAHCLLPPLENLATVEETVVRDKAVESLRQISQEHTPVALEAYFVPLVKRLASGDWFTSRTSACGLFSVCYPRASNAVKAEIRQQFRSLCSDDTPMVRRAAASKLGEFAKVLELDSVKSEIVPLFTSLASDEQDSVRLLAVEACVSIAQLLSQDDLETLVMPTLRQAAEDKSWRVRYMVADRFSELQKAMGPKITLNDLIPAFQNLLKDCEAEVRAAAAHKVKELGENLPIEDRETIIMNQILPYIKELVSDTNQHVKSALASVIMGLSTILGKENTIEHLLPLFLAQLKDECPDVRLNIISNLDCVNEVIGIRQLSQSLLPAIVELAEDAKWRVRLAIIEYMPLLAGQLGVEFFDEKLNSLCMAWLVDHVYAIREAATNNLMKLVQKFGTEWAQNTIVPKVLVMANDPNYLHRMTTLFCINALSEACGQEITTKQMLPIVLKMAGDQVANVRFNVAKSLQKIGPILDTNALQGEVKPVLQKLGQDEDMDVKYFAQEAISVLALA
UniProt Q15173: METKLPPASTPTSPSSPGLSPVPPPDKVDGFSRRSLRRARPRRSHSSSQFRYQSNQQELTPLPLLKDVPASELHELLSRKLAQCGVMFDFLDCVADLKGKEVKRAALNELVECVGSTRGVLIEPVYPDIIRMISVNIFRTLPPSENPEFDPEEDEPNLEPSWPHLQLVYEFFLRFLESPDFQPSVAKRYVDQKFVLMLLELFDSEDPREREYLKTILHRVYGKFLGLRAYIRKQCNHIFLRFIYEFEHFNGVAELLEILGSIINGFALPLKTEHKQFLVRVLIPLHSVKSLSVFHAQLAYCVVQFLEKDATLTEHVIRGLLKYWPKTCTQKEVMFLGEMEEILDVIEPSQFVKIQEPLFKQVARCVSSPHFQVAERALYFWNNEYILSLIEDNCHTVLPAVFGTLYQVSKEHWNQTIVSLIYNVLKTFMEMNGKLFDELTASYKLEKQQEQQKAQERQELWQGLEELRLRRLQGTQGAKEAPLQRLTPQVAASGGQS
UniProt P62714: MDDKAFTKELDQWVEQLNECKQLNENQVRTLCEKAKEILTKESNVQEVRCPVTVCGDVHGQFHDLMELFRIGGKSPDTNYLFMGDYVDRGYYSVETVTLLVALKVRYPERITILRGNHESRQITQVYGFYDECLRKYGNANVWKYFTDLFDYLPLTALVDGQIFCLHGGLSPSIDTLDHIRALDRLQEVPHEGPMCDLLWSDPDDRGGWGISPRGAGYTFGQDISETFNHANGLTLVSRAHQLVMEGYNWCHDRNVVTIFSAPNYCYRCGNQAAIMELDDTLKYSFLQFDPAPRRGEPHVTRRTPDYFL
UniProt P67775: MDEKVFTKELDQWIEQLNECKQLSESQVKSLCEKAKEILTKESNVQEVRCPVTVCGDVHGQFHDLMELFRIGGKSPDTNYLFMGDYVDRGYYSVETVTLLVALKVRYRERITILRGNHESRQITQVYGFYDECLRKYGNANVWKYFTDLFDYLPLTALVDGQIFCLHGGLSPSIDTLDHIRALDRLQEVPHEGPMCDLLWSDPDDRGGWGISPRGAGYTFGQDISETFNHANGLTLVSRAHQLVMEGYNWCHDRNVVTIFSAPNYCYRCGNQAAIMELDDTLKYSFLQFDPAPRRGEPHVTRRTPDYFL
UniProt P30153: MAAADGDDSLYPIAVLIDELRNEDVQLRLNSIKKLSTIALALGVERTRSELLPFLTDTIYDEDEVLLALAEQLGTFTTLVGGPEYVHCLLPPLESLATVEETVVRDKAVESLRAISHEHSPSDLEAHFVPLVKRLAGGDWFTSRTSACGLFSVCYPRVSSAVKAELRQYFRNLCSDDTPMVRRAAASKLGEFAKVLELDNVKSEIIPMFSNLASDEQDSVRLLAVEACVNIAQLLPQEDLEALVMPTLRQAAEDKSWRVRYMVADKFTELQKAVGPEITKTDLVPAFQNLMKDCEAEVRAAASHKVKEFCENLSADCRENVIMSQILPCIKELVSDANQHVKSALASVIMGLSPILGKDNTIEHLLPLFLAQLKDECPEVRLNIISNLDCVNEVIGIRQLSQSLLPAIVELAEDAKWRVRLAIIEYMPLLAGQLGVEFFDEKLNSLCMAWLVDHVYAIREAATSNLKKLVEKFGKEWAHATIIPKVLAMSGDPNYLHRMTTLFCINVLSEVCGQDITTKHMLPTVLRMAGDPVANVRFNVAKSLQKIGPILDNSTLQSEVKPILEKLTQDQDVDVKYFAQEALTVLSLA
UniProt P35222: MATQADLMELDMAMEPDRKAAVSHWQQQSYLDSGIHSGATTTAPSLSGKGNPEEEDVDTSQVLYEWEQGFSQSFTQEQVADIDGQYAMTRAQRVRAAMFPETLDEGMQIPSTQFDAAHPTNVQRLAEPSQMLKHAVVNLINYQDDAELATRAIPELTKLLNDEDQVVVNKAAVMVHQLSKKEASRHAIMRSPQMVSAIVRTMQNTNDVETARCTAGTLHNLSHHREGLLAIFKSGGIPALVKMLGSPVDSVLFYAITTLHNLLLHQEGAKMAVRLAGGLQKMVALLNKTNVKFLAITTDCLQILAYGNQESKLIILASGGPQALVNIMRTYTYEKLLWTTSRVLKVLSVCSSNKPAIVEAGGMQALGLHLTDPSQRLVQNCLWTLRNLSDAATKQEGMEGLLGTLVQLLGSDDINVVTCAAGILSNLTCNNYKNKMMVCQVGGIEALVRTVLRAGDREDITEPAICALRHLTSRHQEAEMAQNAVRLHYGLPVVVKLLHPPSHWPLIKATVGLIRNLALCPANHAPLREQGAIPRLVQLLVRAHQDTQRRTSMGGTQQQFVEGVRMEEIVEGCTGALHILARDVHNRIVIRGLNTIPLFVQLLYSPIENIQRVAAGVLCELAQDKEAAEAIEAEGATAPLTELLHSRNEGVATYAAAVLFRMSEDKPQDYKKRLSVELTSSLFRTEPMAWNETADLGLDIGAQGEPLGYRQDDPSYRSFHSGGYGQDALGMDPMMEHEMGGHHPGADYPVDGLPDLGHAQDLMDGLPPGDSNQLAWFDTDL

[5] = biological target: SFB-B56δ full length (FL) (human) (UniProt Q14738); experiment: pull-down; SFB-tagged bait expressed in cells (HEK293T/293T where named), lysate in NETN buffer, streptavidin Sepharose beads 1 h at 4°C, endogenous prey detected by Western blot; Fig 3B/3L control shRNA cells; Fig 4C control, PPM1G and B56δ shRNA cells
SFB-B56δ L183A (human) = SFB-B56δ L183A (human) (UniProt Q14738); experiment: as above
SFB-B56α (human) = SFB-B56α (human) (UniProt Q15172); experiment: as above
SFB-B56δ H282A (human) = SFB-B56δ H282A (human) (UniProt Q14738); experiment: as above
SFB-B56ε (human) = SFB-B56ε (human) (UniProt Q16537); experiment: as above
SFB-PPP2R1B = SFB-PPP2R1B (UniProt P30154); experiment: as above
SFB-B56β (human) = SFB-B56β (human) (UniProt Q15173); experiment: as above
SFB-PPP2CB = SFB-PPP2CB (UniProt P62714); experiment: as above
SFB-PPP2CA = SFB-PPP2CA (UniProt P67775); experiment: as above
SFB-PPP2R1A = SFB-PPP2R1A (UniProt P30153); experiment: as above
[6] = biological target: endogenous α-catenin (human (endogenous in HEK293T)) (UniProt P35221); experiment: co-IP; endogenous proteins; immunoprecipitation with IgG or α-catenin antibody, immunoblot with PPM1G antibody
SFB-α-catenin [7] = biological target: SFB-α-catenin (UniProt P35221); experiment: co-IP; SFB-α-catenin and Myc-PPM1G expressed in 293T cells; immunoprecipitation with IgG or Flag antibody, blot with Myc antibody
GST-PPP2R1A = GST-PPP2R1A (UniProt P30153); experiment: pull-down; GST-tagged bait on glutathione Sepharose beads incubated with MBP-tagged prey for 1 h at 4°C, detection with MBP antibody; both purified

In the case of “endogenous β-catenin (from UniProt P35222 1-781)”, the binding (SFB-α-catenin [1]) is reported as “binds”, the binding (SFB-α-catenin [2]) is reported as “binds” and the binding (SFB-α-catenin [3]) is reported as “binds”.

In the case of “Myc-tagged α-catenin (from UniProt P35221 1-906)”, the binding [4] is reported as “binds”.

B1: endogenous PPM1G (enzyme, UniProt O15355 1-546)
chain: MGAYLSQPNTVKCSGDGVGAPRLPLPYGFSAMQGWRVSMEDAHNCIPELDSETAMFSVYDGHGGEEVALYCAKYLPDIIKDQKAYKEGKLQKALEDAFLAIDAKLTTEEVIKELAQIAGRPTEDEDEKEKVADEDDVDNEEAALLHEEATMTIEELLTRYGQNCHKGPPHSKSGGGTGEEPGSQGLNGEAGPEDSTRETPSQENGPTAKAYTGFSSNSERGTEAGQVGEPGIPTGEAGPSCSSASDKLPRVAKSKFFEDSEDESDEAEEEEEDSEECSEEEDGYSSEEAENEEDEDDTEEAEEDDEEEEEEMMVPGMEGKEEPGSDSGTTAVVALIRGKQLIVANAGDSRCVVSEAGKALDMSYDHKPEDEVELARIKNAGGKVTMDGRVNGGLNLSRAIGDHFYKRNKNLPPEEQMISALPDIKVLTLTDDHEFMVIACDGIWNVMSSQEVVDFIQSKISQRDENGELRLLSSIVEELLDQCLAPDTSGDGTGCDNMTCIIICFKPRNTAELQPESGKRKLEEVLSTEGAEENGNSDKKKKAKRD
With B1 the binding [5] was “binds”, the binding (SFB-B56δ L183A (human)) was “binds” and the binding (SFB-B56α (human)) was “no binding”. For the same molecule, the binding (SFB-B56δ H282A (human)) was “binds”, the binding (SFB-B56ε (human)) was “no binding” and the binding (SFB-PPP2R1B) was “no binding”. The binding (SFB-B56β (human)) was “no binding”, the binding (SFB-PPP2CB) was “no binding” and the binding (SFB-PPP2CA) was “no binding”. The binding (SFB-PPP2R1A) was “no binding”, the binding [6] was “binds” and the binding (SFB-α-catenin [1]) was “binds”. For the same molecule, the binding (SFB-α-catenin [3]) was “no binding (condition: nuclear fraction)”.

B2: Myc-PPM1G (enzyme, UniProt O15355 1-546)
chain: MGAYLSQPNTVKCSGDGVGAPRLPLPYGFSAMQGWRVSMEDAHNCIPELDSETAMFSVYDGHGGEEVALYCAKYLPDIIKDQKAYKEGKLQKALEDAFLAIDAKLTTEEVIKELAQIAGRPTEDEDEKEKVADEDDVDNEEAALLHEEATMTIEELLTRYGQNCHKGPPHSKSGGGTGEEPGSQGLNGEAGPEDSTRETPSQENGPTAKAYTGFSSNSERGTEAGQVGEPGIPTGEAGPSCSSASDKLPRVAKSKFFEDSEDESDEAEEEEEDSEECSEEEDGYSSEEAENEEDEDDTEEAEEDDEEEEEEMMVPGMEGKEEPGSDSGTTAVVALIRGKQLIVANAGDSRCVVSEAGKALDMSYDHKPEDEVELARIKNAGGKVTMDGRVNGGLNLSRAIGDHFYKRNKNLPPEEQMISALPDIKVLTLTDDHEFMVIACDGIWNVMSSQEVVDFIQSKISQRDENGELRLLSSIVEELLDQCLAPDTSGDGTGCDNMTCIIICFKPRNTAELQPESGKRKLEEVLSTEGAEENGNSDKKKKAKRD
In the case of B2, the binding (SFB-α-catenin [7]) is reported as “binds”.

B3: MBP-PPM1G (enzyme, UniProt O15355 1-546)
chain: MGAYLSQPNTVKCSGDGVGAPRLPLPYGFSAMQGWRVSMEDAHNCIPELDSETAMFSVYDGHGGEEVALYCAKYLPDIIKDQKAYKEGKLQKALEDAFLAIDAKLTTEEVIKELAQIAGRPTEDEDEKEKVADEDDVDNEEAALLHEEATMTIEELLTRYGQNCHKGPPHSKSGGGTGEEPGSQGLNGEAGPEDSTRETPSQENGPTAKAYTGFSSNSERGTEAGQVGEPGIPTGEAGPSCSSASDKLPRVAKSKFFEDSEDESDEAEEEEEDSEECSEEEDGYSSEEAENEEDEDDTEEAEEDDEEEEEEMMVPGMEGKEEPGSDSGTTAVVALIRGKQLIVANAGDSRCVVSEAGKALDMSYDHKPEDEVELARIKNAGGKVTMDGRVNGGLNLSRAIGDHFYKRNKNLPPEEQMISALPDIKVLTLTDDHEFMVIACDGIWNVMSSQEVVDFIQSKISQRDENGELRLLSSIVEELLDQCLAPDTSGDGTGCDNMTCIIICFKPRNTAELQPESGKRKLEEVLSTEGAEENGNSDKKKKAKRD
In the case of B3, the binding (GST-PPP2R1A) is reported as “no binding”.
